PubChem BioAssay (NCI)
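Tested at 5 concentrations; 48 h exposure; 96-well plates; endpoints linearly interpolated, else capped at highest concentration. GI50 is the concentration that inhibits growth by half. TGI denotes the concentration required for complete inhibition of growth.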

system: NCI-H322M lung; assay: NCI tumour cell line growth inhibition, 48 h

Row | Structure (SMILES) | TGI [µM] | GI50 [µM]
1 | Nc1nc(Cl)cc(NCC2(CO)CCCC2)n1 | > 100 | –
2 | C[N+]12CCCCC1C(CN1C(=O)Cc3c4ccccc4c(c4ccccc34)CC1=O)CCC2 (stereo unspecified) | > 100 | –
3 | O=c1c2ccccc2c(=O)c2c1[nH]c1c(-c3ccccc3)c(-c3ccccc3)c(=O)c12 | 7.21 | 2.58
4 | NC(CCC(=O)NC(CSCC1C(=O)Nc2ccccc21)C(=O)NCC(=O)O)C(=O)O (stereo unspecified) | 34.5 | –
5 | COc1ccc(/C=C2\N=C(SC)NC2=O)cc1 | > 100 | –
6 | COC1C=COC2(C)Oc3c(C)c(O)c4c(O)c(c(C5SCCS5)c(O)c4c3C2=O)NC(=O)C(C)=C/C=C\C(C)C2OC(C)(C)OC(C2C)C(C)C(OC(C)=O)C1C (stereo unspecified) | 41.2 | –
7 | CC1=CC(C/C(C)=C/COc2ccc3ccc(=O)oc3c2)OC1=O (stereo unspecified) | > 100 | –
8 | COc1ccc2c(cnc3c4cc(OC)c(OC)cc4ccc23)c1 | > 100 | –
9 | O=C(CCC1OCCO1)Nc1cc(NCc2ccccc2)ccc1OCc1ccccc1 | > 100 | –
10 | N#Cc1c(Cl)cc(Cl)n2c1nc1ccccc12 | 46.6 | –
11 | CC/C=C\C[C@H]1C/C=C2/C(=O)C=C[C@@H]2C/C=C\CCCC(=O)O1 | 5.87 | 2.08
12 | COC(=O)C1=C(C)NC(C)=C(C(=O)OC)C1c1nc2sccn2c1[N+](=O)[O-] | > 100 | –
13 | C=C([C@@]1(O)C[C@H]2[C@H](CCC2(OC)OC)[C@@H]2c3ccccc3O[C@@H]21)[Si](C)(C)C | > 100 | –
14 | Cn1c2ccccc2c(=O)c2cccc(C(=O)NC(CCCN=C(N)N)C(=O)O)c21 (stereo unspecified) | > 100 | –
15 | O=C(CN(c1ccccc1)c1ccccc1)n1nnc2ccccc21 | > 100 | –
16 | CCC/C(Cl)=N\OC(=O)Nc1ccc(OC(F)(F)F)cc1 | 36.7 | –
17 | CSc1sc2ccccc2[s+]1 | > 100 | –
18 | C#Cc1c(I)n(C2OC(CO[Si](C)(C)C(C)(C)C)C3OC(C)(C)OC32)c(=O)[nH]c1=O (stereo unspecified) | 97.9 | 30.4
